# Measurements: PubChem BioAssay AID1745853 (National Center for Advancing Translational Sciences (NCATS), 2022)
# The list shows a part of the results. Further columns of the screen follow, without active or inactive calls.
# Experiments:
# Assay in all cases: Primary Screen for Target Class Profiling of Small Molecule Inhibitors of Methyltransferases
# [1] = biological target: Glycine N-methyltransferase (Homo sapiens) (UniProt Q14749); conditions: purified enzyme, MTase-Glo SAH luminescence; measured here: GNMT inhibition; at 40 µM; stronger effect = lower value
# Procedure, shortened: (§1)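 Each enzyme was assayed with SAM and its substrate. SAH formation detected by MTase-Glo luminescence; single-point 40 uM screen[…].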
# [2] = biological target: Guanidinoacetate N-methyltransferase (Homo sapiens) (UniProt Q14353); conditions: purified enzyme, MTase-Glo SAH luminescence; measured here: GAMT inhibition; at 40 µM; stronger effect = lower value
# Procedure, shortened: as §1
# [3] = biological target: Histamine N-methyltransferase (Homo sapiens) (UniProt P50135); conditions: purified enzyme, MTase-Glo SAH luminescence; measured here: HNMT inhibition; at 40 µM; stronger effect = lower value
# Procedure, shortened: as §1
# [4] = biological target: Nicotinamide N-methyltransferase (Homo sapiens) (UniProt P40261); conditions: purified enzyme, MTase-Glo SAH luminescence; measured here: NNMT inhibition; at 40 µM; stronger effect = lower value
# Procedure, shortened: as §1
# [5] = biological target: Phenylethanolamine N-methyltransferase (Homo sapiens) (UniProt P11086); conditions: purified enzyme, MTase-Glo SAH luminescence; measured here: PNMT inhibition; at 40 µM; stronger effect = lower value
# Procedure, shortened: as §1
# % is scaled to controls: 0 for no effect and ±100 for the full control effect.
smiles,measurement,setting,value
COC(=O)C1=CO[C@@H](O[C@@H]2O[C@H](CO)[C@@H](O)[C@H](O)[C@H]2O)/C(=C\CO)[C@@H]1CC(=O)OCCc1ccc(O)cc1,"activity change, negative = inhibition",[1],0%
same,"activity change, negative = inhibition",[2],0.95%
same,"activity change, negative = inhibition",[3],1.13%
same,"activity change, negative = inhibition",[4],-12.7%
same,"activity change, negative = inhibition",[5],2.47%
Cc1ccc(Cn2c(=O)c3ccc(C(=O)NC(C)C)cc3n3c(=O)n(Cc4ccccc4)nc23)cc1,"activity change, negative = inhibition",[1],8.65%
same,"activity change, negative = inhibition",[2],1.69%
same,"activity change, negative = inhibition",[3],12.6%
same,"activity change, negative = inhibition",[4],10.9%
same,"activity change, negative = inhibition",[5],10.9%
CCOC(=O)c1ccc(NC2CCCCC2)c(N)c1,"activity change, negative = inhibition",[1],2.92%
same,"activity change, negative = inhibition",[2],3.96%
same,"activity change, negative = inhibition",[3],2.08%
same,"activity change, negative = inhibition",[4],-21.3%
same,"activity change, negative = inhibition",[5],-4.08%
CC(=O)O[C@H]1C[C@@H]2CC[C@@H]3[C@H](CC[C@@]4(C)[C@H]3C[C@H]([N+]3(C)CCCCC3)[C@@H]4OC(C)=O)[C@@]2(C)C[C@@H]1[N+]1(C)CCCCC1,"activity change, negative = inhibition",[1],10%
same,"activity change, negative = inhibition",[2],13.7%
same,"activity change, negative = inhibition",[3],-7.17%
same,"activity change, negative = inhibition",[4],-2.07%
same,"activity change, negative = inhibition",[5],0.799%
C[C@@H]1O[C@@H](O[C@H]2[C@H](O)[C@@H](O[C@@H]3O[C@H](CO)[C@@H](O)[C@H](O[C@@H]4O[C@H](CO)[C@@H](O)[C@H](O)[C@H]4O)[C@H]3O)[C@H](O[C@H]3CC[C@@]4(C)C(=CC[C@@H]5C4CC[C@@]4(C)C5C[C@@H]5OC6(CC[C@@](C)(CO[C@@H]7O[C@H](CO)[C@@H](O)[C@H](O)[C@H]7O)O6)[C@@H](C)[C@@H]54)C3)O[C@@H]2CO)[C@H](O)[C@H](O)[C@H]1OC1OC(CO)C(O)C(O)C1O (stereo partly drawn),"activity change, negative = inhibition",[1],8.24%
same,"activity change, negative = inhibition",[2],6.97%
same,"activity change, negative = inhibition",[3],11.4%
same,"activity change, negative = inhibition",[4],-2.08%
same,"activity change, negative = inhibition",[5],6.83%
COc1ccccc1CN1C(=O)c2cc3occc3n2CC1(C)C(=O)NC1CCCCCCC1 (stereo not drawn),"activity change, negative = inhibition",[1],1.06%
same,"activity change, negative = inhibition",[2],0.551%
same,"activity change, negative = inhibition",[3],7.07%
same,"activity change, negative = inhibition",[4],0.331%
same,"activity change, negative = inhibition",[5],3.05%
CC1CCC(NC(=O)C2(C)Cn3c(cc4occc43)C(=O)N2Cc2ccccc2)CC1 (stereo not drawn),"activity change, negative = inhibition",[1],-5.09%
same,"activity change, negative = inhibition",[2],3.26%
same,"activity change, negative = inhibition",[3],1.96%
same,"activity change, negative = inhibition",[4],-11.9%
same,"activity change, negative = inhibition",[5],0.332%
COCC1CN(C)CC12CCN(C(=O)CCc1ccc(OC)cc1)CC2 (stereo not drawn),"activity change, negative = inhibition",[1],-2.33%
same,"activity change, negative = inhibition",[2],-4.4%
same,"activity change, negative = inhibition",[3],-7.63%
same,"activity change, negative = inhibition",[4],-4.07%
same,"activity change, negative = inhibition",[5],-14.2%
O=C1c2c(O)ccc(O)c2C(=O)c2c(NCCNCCO)ccc(NCCNCCO)c21,"activity change, negative = inhibition",[1],-40.9%
same,"activity change, negative = inhibition",[2],-34%
same,"activity change, negative = inhibition",[3],-44.7%
same,"activity change, negative = inhibition",[4],-32.4%
same,"activity change, negative = inhibition",[5],-29.1%
COc1cccc(CNC(=O)[C@@]23CCCC[C@H]2N(CCc2ccccc2)C(=O)CC3)c1,"activity change, negative = inhibition",[1],-1.79%
same,"activity change, negative = inhibition",[2],1.44%
same,"activity change, negative = inhibition",[3],-1.72%
same,"activity change, negative = inhibition",[4],-3.27%
same,"activity change, negative = inhibition",[5],-3.61%
Cc1cc(C)c(/C=C2\C(=O)Nc3ccc(Cl)cc32)[nH]1,"activity change, negative = inhibition",[2],-15.4%
same,"activity change, negative = inhibition",[4],-23.5%
same,"activity change, negative = inhibition",[5],-3.63%
Cc1nnc2n1CCC(NC(=O)CCCc1nc3ccccc3s1)CC2 (stereo not drawn),"activity change, negative = inhibition",[1],-1.38%
same,"activity change, negative = inhibition",[2],1.35%
same,"activity change, negative = inhibition",[3],-0.008%
same,"activity change, negative = inhibition",[4],-2.32%
same,"activity change, negative = inhibition",[5],-1.29%
CCCCN1C(=O)c2cc3ccccc3n2CC1(C)C(=O)NC1CCCC1 (stereo not drawn),"activity change, negative = inhibition",[1],0.413%
same,"activity change, negative = inhibition",[2],0%
same,"activity change, negative = inhibition",[3],1.89%
same,"activity change, negative = inhibition",[4],6.22%
same,"activity change, negative = inhibition",[5],-1.55%
CNC(=O)[C@@H]1C[C@H](n2cc(CNS(=O)(=O)c3cc(C)ccc3F)nn2)CN1,"activity change, negative = inhibition",[1],-7.26%
same,"activity change, negative = inhibition",[2],-10.7%
same,"activity change, negative = inhibition",[3],-4.47%
same,"activity change, negative = inhibition",[4],-10.1%
same,"activity change, negative = inhibition",[5],-0.746%
CC1CCC(NC(=O)C2(C)Cn3c(cc4occc43)C(=O)N2CCc2ccc(Cl)cc2)CC1 (stereo not drawn),"activity change, negative = inhibition",[1],-5.76%
same,"activity change, negative = inhibition",[2],0%
same,"activity change, negative = inhibition",[3],0.49%
same,"activity change, negative = inhibition",[4],-5.13%
same,"activity change, negative = inhibition",[5],-4.42%
O=S(=O)(c1ccccc1)c1nnn2c1nc(NC1CC1)c1cc(Cl)ccc12,"activity change, negative = inhibition",[1],-9.46%
same,"activity change, negative = inhibition",[2],3.32%
same,"activity change, negative = inhibition",[3],-0.253%
same,"activity change, negative = inhibition",[4],-4.15%
same,"activity change, negative = inhibition",[5],-6.17%
COc1ccc(-c2nc3c(C)cccc3cc2CN2CCC(O)CC2)cc1OC,"activity change, negative = inhibition",[1],-9.39%
same,"activity change, negative = inhibition",[2],-7.63%
same,"activity change, negative = inhibition",[3],-11.5%
same,"activity change, negative = inhibition",[4],-15.5%
same,"activity change, negative = inhibition",[5],-2.48%
O=C(CC1CCCN(c2cn[nH]c(=O)c2)C1)N1CCCCC1 (stereo not drawn),"activity change, negative = inhibition",[1],-0.096%
same,"activity change, negative = inhibition",[2],-1.99%
same,"activity change, negative = inhibition",[3],1.38%
same,"activity change, negative = inhibition",[4],-2.04%
same,"activity change, negative = inhibition",[5],2.06%
